# According to the supplement of paper PMC8728848:
# The list shows a part of the results.
# B1: PX9937F-bfa-516-16-516 (Bacteroides fragilis) (protein)
# chain: LDIDPTSSIADSNYWKTEAQFSTFNVGLHALLRECSFNFFLLGEPRADIYGDVPFGGEATQGMERLPFNTINKENTGISNFAGMYKVINQINLMIAKTKETTVLSEAGKNYYLGEAYGMRAYLYFHLLRSWGDVILYLDYTNGASLDLSNLSKAASPAEEVMKQIKEDITASEKGFGSDYSFKYGRYYWSMAATQMLKGEVYLWSGRQMGGGTADYTTAKTALQSIVSNANVSLQDDFSKVFAYNNKDNSEIIFSIRNAKDEYNMWDDRFRQNLVPQQAYMTSTYCNKEGVSFKDLPEGQLNGLIRLQIRYDLYNKAFRDGDTRKDASMTAVYQKQQDGTVKYIAPFCNKYQGVLLDGASQRSFLNDYPIYRYADCLLLLAEAKALLGEDPTAEINQVRERAYGKEFFEANKATLAYPNDKGDFYTDNKYMSGDEDPLEAILKERMREFMFEGKRWYDLRLLGADYVTKRTSAVATRLLWPINESVLTDNPALKQTPGYQN
# Legend:
# Assay in all cases: glycan array binding signal (z-score within array); higher = stronger binding
# Conditions in all cases: glycan notation: IUPAC condensed, linker removed
# [1] = biological target: Gal(b1-4)GlcNAc(b1-6)GalNAc
# How it was run: (§1)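 Glycan array data were curated from 3228 arrays in the Consortium for Functional Glycomics database and kept only where the protein sequence was available. Glycan names were converted to IUPAC-condensed notation, and columns mapping to the same glycan were averaged. The binding signal is a within-array Z-score, averaged across arrays of the same protein sequence at different concentrations or buffers and across linkers. Negative Z-scores can be read as non-binding.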
# [2] = biological target: Gal(b1-4)GlcNAc(b1-6)[Gal(b1-3)]GalNAc
# How it was run: as §1
# [3] = biological target: Gal(b1-4)GlcNAc(b1-6)[Gal(b1-4)GlcNAc(b1-3)]GalNAc
# How it was run: as §1
# Gal(b1-4)GlcNAc6P = biological target: Gal(b1-4)GlcNAc6P
# How it was run: as §1
# Gal(b1-6)Gal = biological target: Gal(b1-6)Gal
# How it was run: as §1
# Gal3S(b1-3)GalNAc = biological target: Gal3S(b1-3)GalNAc
# How it was run: as §1
# Gal3S(b1-3)GlcNAc = biological target: Gal3S(b1-3)GlcNAc
# How it was run: as §1
# [4] = biological target: Gal3S(b1-3)[Fuc(a1-4)]GlcNAc
# How it was run: as §1
# Gal3S(b1-4)Glc = biological target: Gal3S(b1-4)Glc
# How it was run: as §1
# Gal3S(b1-4)Glc6S = biological target: Gal3S(b1-4)Glc6S
# How it was run: as §1
# Gal3S(b1-4)GlcNAc = biological target: Gal3S(b1-4)GlcNAc
# How it was run: as §1
# [5] = biological target: Gal3S(b1-4)[Fuc(a1-3)]Glc6S
# How it was run: as §1
# [6] = biological target: Gal3S(b1-4)[Fuc(a1-3)]GlcNAc
# How it was run: as §1
# [7] = biological target: Gal3S(b1-4)[Fuc(a1-3)]GlcNAc6S
# How it was run: as §1
# Gal3S4S(b1-4)GlcNAc = biological target: Gal3S4S(b1-4)GlcNAc
# How it was run: as §1
# Gal3S6S(b1-4)GlcNAc = biological target: Gal3S6S(b1-4)GlcNAc
# How it was run: as §1
# Gal3S6S(b1-4)GlcNAc6S = biological target: Gal3S6S(b1-4)GlcNAc6S
# How it was run: as §1
# Gal4S(b1-4)GlcNAc = biological target: Gal4S(b1-4)GlcNAc
# How it was run: as §1
# Gal4S6S(b1-4)GlcNAc = biological target: Gal4S6S(b1-4)GlcNAc
# How it was run: as §1
# Gal6P(b1-4)GlcNAc = biological target: Gal6P(b1-4)GlcNAc
# How it was run: as §1
# Gal6S(b1-3)GlcNAc = biological target: Gal6S(b1-3)GlcNAc
# How it was run: as §1
# Gal6S(b1-3)GlcNAc6S = biological target: Gal6S(b1-3)GlcNAc6S
# How it was run: as §1
# Gal6S(b1-4)Glc = biological target: Gal6S(b1-4)Glc
# How it was run: as §1
# Gal6S(b1-4)Glc6S = biological target: Gal6S(b1-4)Glc6S
# How it was run: as §1
# Gal6S(b1-4)GlcNAc = biological target: Gal6S(b1-4)GlcNAc
# How it was run: as §1
# Gal6S(b1-4)GlcNAc6S = biological target: Gal6S(b1-4)GlcNAc6S
# How it was run: as §1
# GalNAc(a1-3)Gal = biological target: GalNAc(a1-3)Gal
# How it was run: as §1
# GalNAc(a1-3)GalNAc = biological target: GalNAc(a1-3)GalNAc
# How it was run: as §1
# [8] = biological target: GalNAc(a1-3)GalNAc(b1-3)Gal(a1-4)Gal(b1-4)Glc
# How it was run: as §1
# [9] = biological target: GalNAc(a1-3)GalNAc(b1-3)Gal(a1-4)Gal(b1-4)GlcNAc
# How it was run: as §1
# GalNAc(b1-3)Gal = biological target: GalNAc(b1-3)Gal
# How it was run: as §1
# [10] = biological target: GalNAc(b1-3)Gal(a1-4)Gal(b1-4)GlcNAc
# How it was run: as §1
# [11] = biological target: GalNAc(b1-3)Gal(a1-4)Gal(b1-4)GlcNAc(b1-3)Gal(b1-4)Glc
# How it was run: as §1
# [12] = biological target: GalNAc(b1-3)Gal(a1-6)Gal(b1-4)Glc
# How it was run: as §1
# GalNAc(b1-3)GalNAc = biological target: GalNAc(b1-3)GalNAc
# How it was run: as §1
# GalNAc(b1-3)GlcNAc = biological target: GalNAc(b1-3)GlcNAc
# How it was run: as §1
# GalNAc(b1-4)Gal(b1-4)Glc = biological target: GalNAc(b1-4)Gal(b1-4)Glc
# How it was run: as §1
# GalNAc(b1-4)GlcNAc = biological target: GalNAc(b1-4)GlcNAc
# How it was run: as §1
binder,measurement,setting,value
B1,glycan array binding signal (z-score),[1],0.084
same,glycan array binding signal (z-score),[2],0.054
same,glycan array binding signal (z-score),[3],-0.055
same,glycan array binding signal (z-score),Gal(b1-4)GlcNAc6P,0.06
same,glycan array binding signal (z-score),Gal(b1-6)Gal,-0.002
same,glycan array binding signal (z-score),Gal3S(b1-3)GalNAc,-0.308
same,glycan array binding signal (z-score),Gal3S(b1-3)GlcNAc,-0.193
same,glycan array binding signal (z-score),[4],-0.165
same,glycan array binding signal (z-score),Gal3S(b1-4)Glc,-0.018
same,glycan array binding signal (z-score),Gal3S(b1-4)Glc6S,-0.009
same,glycan array binding signal (z-score),Gal3S(b1-4)GlcNAc,-0.142
same,glycan array binding signal (z-score),[5],-0.11
same,glycan array binding signal (z-score),[6],0.269
same,glycan array binding signal (z-score),[7],0.072
same,glycan array binding signal (z-score),Gal3S4S(b1-4)GlcNAc,-0.214
same,glycan array binding signal (z-score),Gal3S6S(b1-4)GlcNAc,-0.057
same,glycan array binding signal (z-score),Gal3S6S(b1-4)GlcNAc6S,-0.306
same,glycan array binding signal (z-score),Gal4S(b1-4)GlcNAc,-0.429
same,glycan array binding signal (z-score),Gal4S6S(b1-4)GlcNAc,-0.349
same,glycan array binding signal (z-score),Gal6P(b1-4)GlcNAc,-0.227
same,glycan array binding signal (z-score),Gal6S(b1-3)GlcNAc,0.274
same,glycan array binding signal (z-score),Gal6S(b1-3)GlcNAc6S,-0.126
same,glycan array binding signal (z-score),Gal6S(b1-4)Glc,-0.09
same,glycan array binding signal (z-score),Gal6S(b1-4)Glc6S,0.179
same,glycan array binding signal (z-score),Gal6S(b1-4)GlcNAc,-0.33
same,glycan array binding signal (z-score),Gal6S(b1-4)GlcNAc6S,-0.177
same,glycan array binding signal (z-score),GalNAc(a1-3)Gal,0.114
same,glycan array binding signal (z-score),GalNAc(a1-3)GalNAc,-0.16
same,glycan array binding signal (z-score),[8],0.469
same,glycan array binding signal (z-score),[9],-0.212
same,glycan array binding signal (z-score),GalNAc(b1-3)Gal,-0.015
same,glycan array binding signal (z-score),[10],1.48
same,glycan array binding signal (z-score),[11],-0.29
same,glycan array binding signal (z-score),[12],-0.326
same,glycan array binding signal (z-score),GalNAc(b1-3)GalNAc,-0.374
same,glycan array binding signal (z-score),GalNAc(b1-3)GlcNAc,-0.25
same,glycan array binding signal (z-score),GalNAc(b1-4)Gal(b1-4)Glc,1.77
same,glycan array binding signal (z-score),GalNAc(b1-4)GlcNAc,0.256
